Experimental findings from the supplement of paper PMC4967469 are described below.

By IC50 is meant the dose at which the fit gives 50% viability; a limit (>, <) means that the fit lies beyond the doses tested. AUC is the area under the same curve over the 256-fold range up to the top dose, as a fraction; it is 1 without any effect and falls as sensitivity rises. Where the top dose is marked as inferred, it is not printed in the source and was worked back from the curve model. Drugs with an entry number were screened twice under separate entries, and the two screens often disagree.

Compound in one experiment: NC(=O)[C@@H](CCC(F)(F)F)N(Cc1ccc(-c2ncon2)cc1F)S(=O)(=O)c1ccc(Cl)cc1 [BMS-708163]
The experiment is described as follows: Viability of human cancer cell lines after 72 h of drug (GDSC screen). The conditions noted are these: screen: GDSC drug entry 205; top dose inferred. On the procedure: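 Human cancer cell lines in 384-well plates, medium with 10% serum, drug for 72 h over a 256-fold dose range (nine 2-fold or five 4-fold steps up to the top dose). Adherent lines were fixed and stained with the nucleic acid dye Syto60, suspension lines read with resazurin; signal relative to control wells, capped at 0 and 100%. One two-parameter sigmoid per drug and line, fitted in a mixed model over all curves with the slope shared within a line.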
As a reminder, the IC50 is the concentration at which inhibition is half-maximal. With “NCI-H1299 (large cell lung carcinoma, adherent, top dose 10.24 µM)”, the AUC is 0.983 and the half-maximal inhibitory concentration (IC50) was above 10.2 µM.

For the cell line “NCI-H1304 (small cell lung carcinoma, suspension, top dose 10.24 µM)”, the AUC is 0.982 and the IC50 was above 10.2 µM.

“NCI-H1355 (lung adenocarcinoma, adherent, top dose 10.24 µM)”: the AUC was 0.978 and the IC50 is above 10.2 µM.

As for “NCI-H1395 (lung adenocarcinoma, adherent, top dose 10.24 µM)”, the AUC is 0.98 and the IC50 was above 10.2 µM.

Consider “NCI-H1417 (small cell lung carcinoma, suspension, top dose 10.24 µM)”, for which the AUC worked out at 0.975 and the IC50 is above 10.2 µM.

Turning to “NCI-H1435 (lung adenocarcinoma, semi-adherent, top dose 10.24 µM)”, the AUC was 0.993 and the IC50 is above 10.2 µM.

Consider “NCI-H1436 (small cell lung carcinoma, suspension, top dose 10.24 µM)”, for which the AUC was determined as 0.986 and the IC50 is above 10.2 µM.

Regarding “NCI-H1437 (lung adenocarcinoma, adherent, top dose 10.24 µM)”, the AUC was 0.986 and the IC50 is above 10.2 µM.

In the case of “NCI-H1563 (lung adenocarcinoma, adherent, top dose 10.24 µM)”, the AUC worked out at 0.982 and the IC50 is above 10.2 µM.

“NCI-H1568 (lung adenocarcinoma, adherent, top dose 10.24 µM)”: the AUC was 0.977 and the IC50 is above 10.2 µM.

Turning to “NCI-H1573 (lung adenocarcinoma, adherent, top dose 10.24 µM)”, the AUC came to 0.99 and the IC50 is above 10.2 µM.

With “NCI-H1581 (large cell lung carcinoma, semi-adherent, top dose 10.24 µM)”, the AUC was found to be 0.99 and the IC50 is above 10.2 µM.

For “NCI-H1623 (lung adenocarcinoma, adherent, top dose 10.24 µM)”, the AUC worked out at 0.983 and the IC50 was above 10.2 µM.

With “NCI-H1648 (lung adenocarcinoma, adherent, top dose 2.56 µM)”, the AUC was 0.967 and the IC50 is above 2.56 µM.

Take “NCI-H1651 (lung adenocarcinoma, adherent, top dose 10.24 µM)”: the AUC was 0.982 and the IC50 was above 10.2 µM.

With “NCI-H1666 (lung adenocarcinoma, semi-adherent, top dose 2.56 µM)”, the AUC amounted to 0.987 and the IC50 was above 2.56 µM.

Regarding “NCI-H1688 (small cell lung carcinoma, adherent, top dose 10.24 µM)”, the AUC stood at 0.98 and the IC50 is above 10.2 µM.

As to “NCI-H1693 (lung adenocarcinoma, adherent, top dose 2.56 µM)”, the AUC was 0.943 and the IC50 was above 2.56 µM.

As for “NCI-H1694 (small cell lung carcinoma, suspension, top dose 10.24 µM)”, the AUC is 0.989 and the IC50 is above 10.2 µM.

As for “NCI-H1703 (lung adenocarcinoma, adherent, top dose 10.24 µM)”, the AUC is 0.981 and the IC50 is above 10.2 µM.

With “NCI-H1734 (lung adenocarcinoma, adherent, top dose 2.56 µM)”, the AUC amounted to 0.979 and the IC50 is above 2.56 µM.

Regarding “NCI-H1755 (lung adenocarcinoma, adherent, top dose 10.24 µM)”, the AUC was 0.931 and the IC50 was above 10.2 µM.

Take “NCI-H1770 (non-small cell lung carcinoma, suspension, top dose 10.24 µM)”: the AUC is 0.992 and the IC50 is above 10.2 µM.

For “NCI-H1781 (lung adenocarcinoma, adherent, top dose 10.24 µM)”, the AUC was 0.976 and the IC50 is above 10.2 µM.

With “NCI-H1792 (lung adenocarcinoma, adherent, top dose 10.24 µM)”, the AUC was 0.99 and the IC50 is above 10.2 µM.

In the case of “NCI-H1793 (lung adenocarcinoma, adherent, top dose 10.24 µM)”, the AUC came out at 0.982 and the IC50 is above 10.2 µM.

With “NCI-H1836 (small cell lung carcinoma, suspension, top dose 10.24 µM)”, the AUC is 0.988 and the IC50 was above 10.2 µM.

Regarding “NCI-H1838 (lung adenocarcinoma, adherent, top dose 10.24 µM)”, the AUC was 0.987 and the IC50 was above 10.2 µM.

For the cell line “NCI-H1869 (lung squamous cell carcinoma, adherent, top dose 10.24 µM)”, the AUC is 0.984 and the IC50 is above 10.2 µM.

Consider “NCI-H1876 (small cell lung carcinoma, adherent, top dose 10.24 µM)”, for which the AUC amounted to 0.986 and the IC50 is above 10.2 µM.

As for “NCI-H1915 (large cell lung carcinoma, adherent, top dose 10.24 µM)”, the AUC worked out at 0.981 and the IC50 is above 10.2 µM.

For the cell line “NCI-H1944 (lung adenocarcinoma, adherent, top dose 10.24 µM)”, the AUC was determined as 0.983 and the IC50 was above 10.2 µM.

Take “NCI-H1975 (lung adenocarcinoma, adherent, top dose 2.56 µM)”: the AUC was determined as 0.983 and the IC50 is above 2.56 µM.

As for “NCI-H1993 (lung adenocarcinoma, adherent, top dose 10.24 µM)”, the AUC was determined as 0.975 and the IC50 was above 10.2 µM.

“NCI-H2009 (lung adenocarcinoma, adherent, top dose 10.24 µM)”: the AUC is 0.986 and the IC50 is above 10.2 µM.

As for “NCI-H2023 (lung adenocarcinoma, adherent, top dose 10.24 µM)”, the AUC came out at 0.982 and the IC50 was above 10.2 µM.

“NCI-H2029 (small cell lung carcinoma, adherent, top dose 10.24 µM)”: the AUC is 0.992 and the IC50 is above 10.2 µM.

In the case of “NCI-H2030 (lung adenocarcinoma, adherent, top dose 10.24 µM)”, the AUC was found to be 0.981 and the IC50 was above 10.2 µM.

Consider “NCI-H2052 (mesothelioma, adherent, top dose 10.24 µM)”, for which the AUC was found to be 0.975 and the IC50 is above 10.2 µM.

In the case of “NCI-H2081 (small cell lung carcinoma, suspension, top dose 10.24 µM)”, the AUC came to 0.989 and the IC50 was above 10.2 µM.

In the case of “NCI-H2085 (lung adenocarcinoma, adherent, top dose 10.24 µM)”, the AUC was found to be 0.986 and the IC50 is above 10.2 µM.

In the case of “NCI-H2087 (lung adenocarcinoma, semi-adherent, top dose 2.56 µM)”, the AUC turned out to be 0.983 and the half-maximal inhibitory concentration (IC50) is above 2.56 µM.

Regarding “NCI-H2110 (non-small cell lung carcinoma, adherent, top dose 10.24 µM)”, the AUC was 0.985 and the IC50 was above 10.2 µM.

As for “NCI-H2122 (lung adenocarcinoma, adherent, top dose 2.56 µM)”, the AUC turned out to be 0.989 and the IC50 is above 2.56 µM.

Turning to “NCI-H2135 (non-small cell lung carcinoma, adherent, top dose 10.24 µM)”, the AUC turned out to be 0.989 and the IC50 is above 10.2 µM.

Consider “NCI-H2141 (small cell lung carcinoma, suspension, top dose 10.24 µM)”, for which the AUC worked out at 0.984 and the IC50 is above 10.2 µM.

On to “NCI-H2170 (lung squamous cell carcinoma, adherent, top dose 10.24 µM)”, for which the AUC stood at 0.985 and the IC50 is above 10.2 µM.

With “NCI-H2171 (small cell lung carcinoma, suspension, top dose 10.24 µM)”, the AUC is 0.988 and the IC50 is above 10.2 µM.

On to “NCI-H2172 (non-small cell lung carcinoma, adherent, top dose 10.24 µM)”, for which the AUC was determined as 0.983 and the IC50 is above 10.2 µM.

As for “NCI-H2196 (small cell lung carcinoma, adherent, top dose 10.24 µM)”, the AUC amounted to 0.985 and the IC50 was above 10.2 µM.

As for “NCI-H2227 (small cell lung carcinoma, semi-adherent, top dose 10.24 µM)”, the AUC worked out at 0.976 and the half-maximal inhibitory concentration (IC50) was above 10.2 µM.

With “NCI-H2228 (lung adenocarcinoma, adherent, top dose 10.24 µM)”, the AUC came out at 0.95 and the IC50 was above 10.2 µM.

Take “NCI-H2291 (lung adenocarcinoma, adherent, top dose 10.24 µM)”: the AUC turned out to be 0.981 and the IC50 is above 10.2 µM.

As to “NCI-H2342 (lung adenocarcinoma, adherent, top dose 10.24 µM)”, the AUC stood at 0.986 and the IC50 was above 10.2 µM.

As to “NCI-H2347 (lung adenocarcinoma, adherent, top dose 10.24 µM)”, the AUC worked out at 0.976 and the IC50 was above 10.2 µM.

The experiment is the same for the next values; noted with them: top dose 5 µM; screen: GDSC drug entry 1072; top dose inferred.
In the case of “NCI-H1341 (small cell lung carcinoma, suspension)”, the AUC is 0.973 and the IC50 is above 5 µM.

In the case of “NCI-H1650 (lung adenocarcinoma, adherent)”, the AUC came to 0.981 and the IC50 is above 5 µM.

Turning to “NCI-H2066 (small cell lung carcinoma, adherent)”, the AUC was determined as 0.973 and the IC50 was above 5 µM.
